Measurements published in the antibiotic and cytotoxicity screens of Wong et al. (2023).
This is one part of the list.

Key:
HSkMC = human skeletal muscle cells; assay: cytotoxicity call (relative viability < 0.9); details: 10 µM
HepG2 = assay: cytotoxicity call (relative viability < 0.9); details: 10 µM
S. aureus RN4220 = assay: growth inhibition call (relative growth <= 0.2); details: 50 µM

| SMILES | cytotoxicity call (HSkMC) | cytotoxicity call (HepG2) | growth inhibition call (S. aureus RN4220) |
| --- | --- | --- | --- |
| C[C@@H]1CN([C@H](C)CO)C(=O)c2cc(NC(=O)CCC(F)(F)F)ccc2O[C@@H](C)CCCCO[C@@H]1CN(C)Cc1ccncc1 | inactive | inactive | inactive |
| CNC[C@H]1Oc2c(NS(=O)(=O)c3cn(C)cn3)cccc2C(=O)N([C@H](C)CO)C[C@@H]1C | inactive | inactive | inactive |
| Cc1noc(C)c1S(=O)(=O)N(C)C[C@H]1Oc2ccc(NS(C)(=O)=O)cc2CC(=O)N([C@H](C)CO)C[C@H]1C | inactive | inactive | inactive |
| CCc1c(O)cc(O)c(C(=O)c2ccc(OCCN3CCOCC3)c(OC)c2)c1CC(=O)N(CCOC)CCOC | active | active | inactive |
| Cc1ccc(S(=O)(=O)Nc2ccc3c(c2)C(=O)N([C@H](C)CO)C[C@H](C)[C@@H](CN(C)C(=O)Nc2ccc(C(F)(F)F)cc2)OCCCC[C@H](C)O3)cc1 | inactive | inactive | inactive |
| COc1cc2c(cc1OC)-c1c(oc3c4c(ccc3c1=O)OC(C)(C)C=C4)CO2 | inactive | active | inactive |
| CC(C)(CO)[C@@H](O)C(=O)NCCC(=O)NCCSSCCNC(=O)CCNC(=O)[C@H](O)C(C)(C)CO | inactive | inactive | inactive |
| C[C@@H]1CN([C@H](C)CO)C(=O)Cc2cc(NC(=O)CCC(F)(F)F)ccc2O[C@H]1CN(C)Cc1ccc(-c2ccccc2)cc1 | inactive | active | inactive |
| C[C@H]1CN([C@@H](C)CO)S(=O)(=O)c2ccc(C#Cc3ccccn3)cc2O[C@@H]1CN(C)Cc1ccccc1 | inactive | inactive | inactive |
| C[C@@H]1O[C@@H](O[C@H]2[C@H](O)[C@@H](O)[C@H](OC(=O)[C@]34CCC(C)(C)C[C@H]3C3=CC[C@H]5[C@@]6(C)CC[C@H](O[C@@H]7O[C@H](C(=O)O)[C@@H](O)[C@H](O)[C@H]7O)C(C)(C)[C@@H]6CC[C@@]5(C)[C@]3(C)CC4)O[C@@H]2CO)[C@H](O)[C@H](O)[C@H]1O | inactive | inactive | inactive |
| Nc1cc([N+](=O)[O-])ccc1C(=O)O | inactive | inactive | inactive |
| Cc1ccc(S(=O)(=O)N(C)C[C@H]2OCCCC[C@@H](C)Oc3ccc(NC(=O)Nc4ccc(F)cc4)cc3C(=O)N([C@@H](C)CO)C[C@H]2C)cc1 | inactive | active | inactive |
| C[C@H](CO)N1C[C@H](C)[C@H](CN(C)S(C)(=O)=O)Oc2ncc(C#Cc3cccnc3)cc2C1=O | inactive | inactive | inactive |
| COc1ccc(S(=O)(=O)Nc2ccc3c(c2)C(=O)N([C@H](C)CO)C[C@H](C)[C@@H](CN(C)C(=O)CCC(F)(F)F)OCCCC[C@H](C)O3)cc1 | inactive | inactive | inactive |
| Cc1noc(C)c1S(=O)(=O)Nc1ccc2c(c1)CC(=O)N([C@H](C)CO)C[C@H](C)[C@@H](CN(C)S(=O)(=O)c1ccc(Cl)cc1)O2 | inactive | inactive | inactive |
| Cc1ccc(S(=O)(=O)N(C)C[C@@H]2Oc3ccc(NS(C)(=O)=O)cc3C(=O)N([C@@H](C)CO)C[C@H]2C)cc1 | inactive | inactive | inactive |
| CCS(=O)(=O)N1CC[C@]2(CC1)CN([C@H](CO)c1[nH]c3cc(ccc3c12)OC)C(=O)Nc1c(noc1C)C | inactive | inactive | inactive |
| Cc1sc(N)nc1-c1ccccc1 | inactive | inactive | inactive |
| O=C(Cc1ccccn1)NCC[C@@H]1CC[C@@H](NC(=O)CN2CCOCC2)[C@@H](CO)O1 | inactive | inactive | inactive |
| C[C@@H]1CCCCO[C@H](CN(C)Cc2ccc(C(=O)O)cc2)[C@H](C)CN([C@H](C)CO)C(=O)c2cc(NS(=O)(=O)c3ccccc3)ccc2O1 | inactive | inactive | inactive |
| O=C1CCC(C(=O)O)N1 (centres undefined) | inactive | inactive | inactive |
| C[C@H](CO)N1C[C@H](C)[C@@H](CN(C)Cc2ccccc2)OCCCC[C@H](C)Oc2ccc(NC(=O)Nc3ccccc3)cc2C1=O | inactive | inactive | inactive |
| C[C@@H]1CN([C@@H](C)CO)C(=O)c2cccc(NC(=O)c3nc4ccccc4s3)c2O[C@H]1CN(C)Cc1ccc(Cl)c(Cl)c1 | inactive | inactive | inactive |
| COc1ccc(CN(C)C[C@H]2OCCCC[C@@H](C)Oc3ccc(NC(=O)Cc4ccccc4)cc3C(=O)N([C@H](C)CO)C[C@H]2C)cc1 | inactive | inactive | inactive |
| CC1(C)[C@@H](OC(=O)CCC(=O)O)CC[C@@]2(C)[C@H]1CC[C@]1(C)[C@H]2C(=O)C=C2[C@@H]3C[C@@](C)(C(=O)O)CC[C@]3(C)CC[C@]21C | inactive | inactive | inactive |
| C[C@@H]1CCCCO[C@H](CN(C)S(=O)(=O)c2cccs2)[C@@H](C)CN([C@@H](C)CO)C(=O)c2cc(NC(=O)CCC(F)(F)F)ccc2O1 | inactive | inactive | inactive |
| CO[C@H]1CN(C)C(=O)c2ccc(NS(C)(=O)=O)cc2OC[C@H](C)N(C(=O)C2CCOCC2)C[C@H]1C | inactive | inactive | inactive |

| SMILES | cytotoxicity call (HSkMC) | cytotoxicity call (HepG2) | growth inhibition call (S. aureus RN4220) |
| --- | --- | --- | --- |
| Cc1ccc(S(=O)(=O)Nc2ccc3c(c2)C(=O)N([C@H](C)CO)C[C@H](C)[C@@H](CN(C)S(=O)(=O)c2cn(C)cn2)O3)cc1 | inactive | inactive | inactive |
| COc1ccc(S(=O)(=O)Nc2cccc3c2O[C@H](CN(C)S(=O)(=O)c2ccc(OC)cc2)[C@H](C)CN([C@@H](C)CO)C3=O)cc1 | inactive | inactive | inactive |
| C[C@@H]1CN([C@@H](C)CO)C(=O)c2cccc(NC(=O)Nc3ccc(C(F)(F)F)cc3)c2O[C@@H]1CN(C)C(=O)Nc1ccc2c(c1)OCO2 | inactive | inactive | inactive |
| C[C@@H]1CN([C@@H](C)CO)C(=O)c2cccc(NC(=O)Nc3cccc4ccccc34)c2O[C@@H]1CN(C)Cc1ccc(Cl)c(Cl)c1 | inactive | inactive | inactive |
| C[C@@H]1CCCCO[C@@H](CN(C)S(=O)(=O)c2ccc(Cl)cc2)[C@@H](C)CN([C@H](C)CO)C(=O)c2cc(NC(=O)Nc3ccccc3)ccc2O1 | inactive | inactive | inactive |
| CC(C)NC(=O)Nc1ccc2c(c1)C(=O)N([C@H](C)CO)C[C@@H](C)[C@H](CN(C)Cc1ccccc1)OCCCC[C@@H](C)O2 | inactive | inactive | inactive |
| C[C@@H]1CN([C@H](C)CO)C(=O)c2cc(-c3cccc(C(=O)N(C)C)c3)cnc2O[C@H]1CN(C)S(=O)(=O)c1ccccc1 | inactive | inactive | inactive |
| Cc1noc(C)c1NC(=O)N(C)C[C@@H]1Oc2ccc(NS(C)(=O)=O)cc2C(=O)N([C@@H](C)CO)C[C@H]1C | inactive | inactive | inactive |
| CC(C)(O)C#Cc1cccc(-c2nc(C(=O)Nc3ccc(-c4ccccc4)cc3)cc3c2[C@@H](CCO)N(S(=O)C(C)(C)C)C3)c1 (some centres undefined) | inactive | active | inactive |
| C[C@@H]1CN([C@H](C)CO)C(=O)Cc2cc(NC(=O)c3ccncc3)ccc2O[C@@H]1CN(C)Cc1ccc(C(=O)O)cc1 | inactive | inactive | inactive |
| CC(=O)OC[C@H]1O[C@@H](n2ccc(=O)[nH]c2=O)[C@H](OC(C)=O)[C@@H]1OC(C)=O | inactive | inactive | inactive |
| Cc1ccc(S(=O)(=O)N2C[C@@H](O)COC[C@H]3O[C@@H](CC(=O)NCCN4CCCCC4)CC[C@@H]32)cc1 | inactive | inactive | inactive |
| C[C@@H]1CCCCO[C@@H](CN(C)Cc2ccc3c(c2)OCO3)[C@@H](C)CN([C@@H](C)CO)C(=O)c2cc(NS(=O)(=O)c3ccc(Cl)cc3)ccc2O1 | inactive | active | inactive |
| CN(C)C(=O)c1cccc(-c2cccc(-c3nc(C(=O)NCc4ccccc4)cc4c3[C@H](CCO)N([S@@](=O)C(C)(C)C)C4)c2)c1 | inactive | inactive | inactive |
| C[C@H]1CN([C@@H](C)CO)C(=O)c2cc(NS(=O)(=O)c3ccccc3)ccc2O[C@@H]1CN(C)S(=O)(=O)c1ccc(F)cc1 | inactive | inactive | inactive |
| COc1cc(C)nc(SCC(N)=O)n1 | inactive | inactive | inactive |
| Cc1noc(C)c1NC(=O)Nc1ccc2c(c1)CC(=O)N([C@@H](C)CO)C[C@H](C)[C@H](CN(C)Cc1ccc(C(F)(F)F)cc1)O2 | inactive | inactive | inactive |
| C(=N\n1cnnc1)/c1ccccn1 | inactive | inactive | inactive |
| C[C@@H]1CCCCO[C@@H](CN(C)CC2CC2)[C@@H](C)CN([C@H](C)CO)C(=O)c2cc(NC(=O)Nc3ccc(F)cc3)ccc2O1 | inactive | inactive | inactive |
| C[C@H]1CN([C@@H](C)CO)C(=O)c2cccc(NC(=O)Nc3ccc(C(F)(F)F)cc3)c2O[C@H]1CN(C)Cc1ccc(C(=O)O)cc1 | inactive | inactive | inactive |
| C[C@H]1CN([C@@H](C)CO)C(=O)c2cc(C#CCN(C)C)cnc2O[C@@H]1CN(C)Cc1ccc2c(c1)OCO2 | inactive | inactive | inactive |
| CC(C)NC(=O)N(C)C[C@H]1Oc2ccc(NC(=O)Nc3ccc4c(c3)OCO4)cc2CC(=O)N([C@H](C)CO)C[C@H]1C | inactive | inactive | inactive |
| CCCNC(=O)N(C)C[C@@H]1Oc2cc(-c3ccccc3F)ccc2S(=O)(=O)N([C@@H](C)CO)C[C@H]1C | inactive | inactive | inactive |
| COCC(=O)N1C[C@H](C)[C@H](OC)CN(C)C(=O)c2ccc(NC(=O)c3cc(C)on3)cc2OC[C@@H]1C | inactive | inactive | inactive |
| C[C@H](CO)N1C[C@H](C)[C@@H](CN(C)Cc2ccc(C(F)(F)F)cc2)Oc2ccc(NC(=O)Nc3ccc(F)cc3)cc2C1=O | active | active | inactive |
| O=C(C[C@H]1C[C@H]2c3cc(NC(=O)c4ccc5c(c4)OCO5)ccc3O[C@H]2[C@@H](CO)O1)NCCc1ccccc1 | inactive | inactive | inactive |
